The record followed here is ChEMBL document CHEMBL1201862, “PubChem BioAssay data set” (2004).

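Results reflect a 48-hour exposure of cells in 96-well plates to compound at five concentrations. GI50: concentration for 50% inhibition of growth.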 Calls of active or inactive are those of the source. No stated cut-off is given here; in the data, active = GI50 up to about 1.1 µM and inactive = higher.

The test system of the experiment is NCI-H322M. Kind of experiment: NCI anticancer screen, dose series, 48 h.
Regarding `N/N=c1\c2ccccc2c2ccc3c4ccccc4/c(=N\N)c3c12`, the GI50 was inactive: > 100 µM. As for `c1ccc(CCCNc2nnnc3ccccc23)cc1`, the GI50 is inactive: > 100 µM. On to `O=C(COC(=O)c1ccccc1)c1ccc(Br)cc1`, for which the GI50 is inactive: 13.1 µM.

On to `C[C@]1(O)CC[C@H]2[C@@H]3CCc4cc(O)ccc4[C@H]3CC[C@@]21C`, for which the GI50 was inactive: 1.95 µM. On to `COc1cc2c(c(OC)c1OC)-c1ccc(SC)c(=O)cc1C(NC=O)CC2` (stereo unspecified), for which the GI50 was active: < 0.01 µM.

In the case of `COC1=CC(=O)C(C2CC(=O)c3c(O)cc(O)cc3O2)=CC1=O` (stereo unspecified), the GI50 is inactive: 42.9 µM.

For the molecule `O=C(O)CSCCc1ccccc1`, the GI50 is inactive: > 100 µM. In the case of `c1ccc2c3c([nH]c2c1)C1CCCN1CC3` (stereo unspecified) it was inactive: > 10 µM; in that of `CO[C@]12C[C@H](CNC(=O)c3ccc[nH]3)O[C@H]1NC(=O)N2`, inactive: > 100 µM.

In the case of `FC(F)(F)c1nc(-c2ccccc2Cl)[nH]c1C(F)(F)F`, the GI50 was active: 0.881 µM. Next, `CCCCCC(C)C[C@H]1CO[C@H](c2ccc[nH]2)N[C@H]1C(=O)OC` (stereo partly specified): inactive: > 100 µM; `Cc1cn([C@@H]2C[C@H]2CO)c(=O)[nH]c1=O`: inactive: > 100 µM. In the case of `COc1ccc2c(c1OC)OC[C@@H](C1=CC(=O)C=C(O)C1=O)C2` it was inactive: 16.4 µM.

`N#CCC(=O)N/N=C(\CCN1CCCC1)CC(c1ccccc1)c1c(O)c2ccccc2oc1=O` (stereo unspecified): the GI50 is inactive: > 100 µM. As for `OCCCCn1cc(Cn2ncc3c(NCc4ccccc4)ncnc32)nn1`, the GI50 is inactive: > 100 µM. Regarding `CCOC(=O)c1cc2c([nH]1)c(O)cc1c2ccn1Cc1ccccc1`, the GI50 was inactive: 20.7 µM.

In the case of `O=CC1OC(=O)c2cc(O)c(O)c(O)c2-c2c(cc(O)c(O)c2O)C(=O)OC1C(O)C(O)CO` (stereo unspecified), the GI50 is inactive: 35 µM. Regarding `CN(C)CCNC(=O)c1cccc2c(Nc3ccc(S(N)(=O)=O)cc3)c3ccccc3nc12`, the GI50 is inactive: 1.66 µM. On to `c1ccc(/C(=N/Nc2nc3ccccc3s2)C2CCCCC2)nc1`, for which the GI50 was inactive: 5.86 µM.

As to `CCOC(=O)c1cc2c(OC)cc(OC)cc2oc1=O`, the GI50 is inactive: > 100 µM. As for `COc1ccc(-c2nc(-c3cnccn3)n(C/C=C/c3ccccc3)n2)cc1`, the GI50 is inactive: > 100 µM.

Take `O=[N+]([O-])C1CC/C(=N/O)c2nonc21` (stereo unspecified): the GI50 is inactive: > 10 µM.

Regarding `COc1ccccc1NS(=O)(=O)c1ccc2ncn(NS(=O)(=O)c3ccc(Cl)cc3)c(=O)c2c1`, the GI50 is inactive: > 100 µM. Turning to `CCc1nc(N)c2nc(-c3cccs3)oc2n1`, the GI50 was inactive: > 100 µM. As for `COC(=O)NC(Nc1ccccn1)(C(F)(F)F)C(F)(F)F`, the GI50 is inactive: > 100 µM. Regarding `COC(=O)/C(C)=N/N=C(\S)SC`, the GI50 is inactive: 70.1 µM. On to `N#Cc1[nH]c(=S)[nH]c1N`, for which the GI50 is inactive: > 100 µM. Consider `CC(=O)Nc1ccc2c(C(=O)O)c(C)c(O)nc2n1`, for which the GI50 was inactive: > 100 µM. With `CNC(=O)CN(CC(N)=O)C(=O)NC`, the GI50 was inactive: > 100 µM. Turning to `CC1(C)C2CCC1(C)[C@H](O)[C@H]2Nc1cc(C(F)(F)F)cc(C(F)(F)F)c1` (stereo partly specified), the GI50 is inactive: 5.6 µM. Regarding `c1ccc(P(=Nc2ccccc2N=P(c2ccccc2)(c2ccccc2)c2ccccc2)(c2ccccc2)c2ccccc2)cc1`, the GI50 is inactive: > 100 µM. `CN1C(NN)=NS(=O)(=O)c2ccccc21`: the GI50 is inactive: > 100 µM.

With `COc1cccc(CCNc2c(C#N)c3nc4ccccc4n3c3ccccc23)c1`, the GI50 is inactive: 1.95 µM. In the case of `CCn1c2ccccc2c2ccc3c(c21)C(=O)c1ccccc1C3=O` it was inactive: > 100 µM; in that of `CN(C)c1ccc(C=C2C(=O)OC(C)(C)OC2=O)cc1Br`, inactive: > 100 µM. With `CCOC(=O)C(=Cc1ccc(Oc2ccccc2)cc1)C(=O)OCC`, the GI50 was inactive: 13 µM. In the case of `CC(=O)OCC1OC(SC2=NC(=O)/C(=C/c3ccccc3)S2)C(OC(C)=O)C(OC(C)=O)C1OC(C)=O` (stereo unspecified) it was inactive: 43.7 µM; in that of `CCC(C(=O)c1cccs1)C(O)(C(F)(F)F)C(F)(F)F` (stereo unspecified), inactive: > 100 µM; in that of `C/C(=C/CC[C@]1(CO)CC[C@]2(C)[C@H](CC[C@@H]3[C@@]4(C)CC[C@H](OC5OC(CO)C(O)C(O)C5OC5OC(CO)C(O)C(O)C5O)C(C)(C)[C@@H]4CC[C@]32C)[C@H]1O)CO` (stereo partly specified), inactive: > 100 µM.

Consider `Cc1cc(S(=O)(=O)NC(=C(C#N)C#N)[n+]2ccc(N(C)C)cc2)c([S-])cc1Cl`, for which the GI50 was inactive: > 100 µM. Turning to `Cc1cc(-c2nc3cc(F)ccc3s2)ccc1NC(=O)[C@@H](N)CCCCN`, the GI50 is inactive: 1.76 µM.

Take `CCCCn1c(-c2ccc([N+](=O)[O-])cc2)cs/c1=N/N=C1\C(=O)Nc2ccc(Br)cc21`: the GI50 was inactive: 29.1 µM. In the case of `CCOC(=O)C(C)(Cc1ccc(O)cn1)NC(=O)c1ccccc1` (stereo unspecified) it was inactive: > 100 µM; in that of `COc1cc2c(c(OC3OC(CO)C(O)C(O)C3O)c1)C(=O)CC(c1ccc(O)cc1)O2` (stereo unspecified), inactive: > 100 µM.

As for `O[C@H]1[C@H]2[C@H](O)C[C@H](CCOCc3ccccc3)CN2C[C@H]1O`, the GI50 is inactive: > 100 µM. Take `CC1(C)C(=O)CCC(=O)C(C)(C)C2=CC=C(O2)C(C)(C)C(=O)CCC(=O)C(C)(C)C2=CC=C1O2`: the GI50 is inactive: > 100 µM. Next, `NNC(=O)N/N=C1\CN(c2ccc(Cl)cc2Cl)C(=O)C(=O)C1c1nc2ccccc2o1` (stereo unspecified): inactive: > 100 µM; `c1ccc2c3c([nH]c2c1)C1(CCCCC1)c1c([nH]c2ccccc12)C31CCCCC1`: inactive: 25.1 µM; `COC(=O)[C@H](Cc1ccccc1)NC(=O)OCC1OC(n2cc(C)c(=O)[nH]c2=O)CC1N=[N+]=[N-]` (stereo partly specified): inactive: > 100 µM. As for `C=CCC(CNC(=O)OCc1ccccc1)OC(=O)OCc1ccccc1` (stereo unspecified), the GI50 is inactive: > 100 µM. On to `O=[N+]([O-])c1sc2ccc(Cl)cc2c1Nc1ccc(Cl)cc1`, for which the GI50 is inactive: > 100 µM. For `CCOP(=O)(O)C(C)(C)NC`, the GI50 was inactive: > 100 µM. As to `COC1CC(OC2C(C)OC(OC3C(C)OC(OC4C(O)CC(O[C@H]5CC[C@@]6(C)C(=CC[C@]7(O)[C@@H]6C[C@@H](OC(C)=O)[C@@]6(C)[C@]7(O)CC[C@@]6(O)C(C)=O)C5)OC4C)CC3OC)CC2OC)OC(C)C1O` (stereo partly specified), the GI50 is inactive: > 12.5 µM. Next, `O=C(Nc1nc2ncn(CCO)c2c(=O)[nH]1)c1ccccc1`: inactive: > 100 µM. Turning to `COP(=O)(OC)C(O)/C=C(\Cl)c1ccc(Cl)cc1` (stereo unspecified), the GI50 was inactive: > 100 µM. For `CCCCN1C(=O)CC2[C@@H]3CCc4cc(OC)ccc4C3CC[C@]2(C)C1=O` (stereo partly specified), the GI50 was inactive: > 10 µM. `CCN(CCCN(CC)C(=O)N[C@@H](Cc1ccccc1)C(=O)NC)C(=O)N[C@@H](Cc1ccccc1)C(=O)NC`: the GI50 is inactive: > 100 µM. In the case of `Oc1ccc(SCc2cc(O)c(O)c(O)c2)cc1`, the GI50 was inactive: 16.1 µM. As to `COc1cc(C(=O)NC(CCN)(c2ccccc2)c2ccccc2)cc(OC)c1OC`, the GI50 was inactive: 88.3 µM. Consider `O=C1C(=O)N(c2ccc(Cl)cc2)C(=O)C(=O)C1c1nc2ccccc2s1`, for which the GI50 is inactive: > 100 µM.

In the case of `O=c1n(N=[S+]([O-])(c2ccccc2)c2ccccc2)c(=O)n2n1C1C=CC2CC1`, the GI50 was inactive: > 100 µM.

`O=c1/c(=C/c2ccccc2O)sc2nc3ccccc3n12`: the GI50 was inactive: 76.6 µM. `CC(=O)Oc1ccc2c(c1)c1c(=O)oc(C)nc1n2Cc1ccccc1`: the GI50 was inactive: 51.2 µM. Consider `Cc1cc(C)n(-c2nc3ccccc3c(=O)[nH]2)n1`, for which the GI50 is inactive: 3.52 µM. As to `CN(C)C(=O)N1N[C@H](c2ccccc2)[C@@H]1c1ccccc1`, the GI50 was inactive: > 100 µM. Consider `C1CSCCSCCSCCSC1`, for which the GI50 is inactive: > 100 µM.

With `COC(=O)c1cc2c(=O)n(C)c3ccccc3n2c1C(=O)OC`, the GI50 was inactive: 88.3 µM.

`CCOC(=O)CCC1(C(=O)OCC)CCCC1=O` (stereo unspecified): the GI50 is inactive: > 100 µM. In the case of `O=C1CSC(c2ccccc2O)N1c1ccc2c(c1)Oc1c(Cl)c3c(c(Cl)c1=N2)Oc1cc(N2C(=O)CSC2c2ccccc2O)ccc1N=3` (stereo unspecified), the GI50 is inactive: 67.1 µM.

For `Cc1ccc(Nc2nc3[nH]ccc3c(=O)[nH]2)cc1`, the GI50 is inactive: 58.1 µM. Next, `[N-]=[N+]=NC1C(O)C(CO)OC1n1cnc2c(N)ncnc21` (stereo unspecified): inactive: 90.4 µM; `CCCCOC(C)(C)/C=C/C(O)[C@](C)(O)[C@H]1[C@H](O)C[C@@]2(C)[C@@H]3CCc4c(cc(OC5OC(CO)C(O)C(O)C5O)c(O)c4C)C3(C)C(=O)C[C@]12C` (stereo partly specified): inactive: > 100 µM; `CC1(O)C(=O)OC2CC([C@]3(O)CCC4[C@@H]5C[C@H]6O[C@]67[C@@H](O)C=CC(=O)[C@]7(C)C5CC[C@@]43C)C1(C)C2` (stereo partly specified): inactive: 50.6 µM. `CC1CCC2(NC1)OC1CC3[C@@H]4CC=C5C=CCC[C@]5(C)C4CC[C@]3(C)C1C2C` (stereo partly specified): the GI50 is inactive: 22.9 µM. For the molecule `C=C1C(=O)O[C@H](c2ccoc2)C[C@@H]1[C@@]1(C)CCCC2(C)C(=O)OCC21` (stereo partly specified), the GI50 is inactive: > 100 µM. For `Cc1cc(-c2nc3cc(F)ccc3s2)ccc1N`, the GI50 is inactive: 12.2 µM. In the case of `O=S(=O)(N/C(=N\O)Nc1ccc(Cl)cc1)c1cc2ccccc2o1` it was inactive: 24.5 µM; in that of `CN(C)/C=C/c1c2c(nc3ccccc13)C(=O)c1ccccc1C2=O`, inactive: 2.04 µM. In the case of `O=C(Nc1ccn(C2CCC(COC(c3ccccc3)(c3ccccc3)c3ccccc3)O2)c(=O)n1)c1ccccc1` (stereo unspecified) it was inactive: > 10 µM; in that of `COc1ccc(Nc2nc(N)c(C(=O)c3ccccc3)s2)cc1`, active: 0.46 µM. Take `Oc1cc(-c2ccc(Cl)cc2)nc2ncccc12`: the GI50 is inactive: 67.3 µM.
